# Assay results taken from a collection of fitness landscapes (doi:10.1126/science.1257360).
# This is one part of the list.
# B1: PhoQ; a variant is named by its letters at X, in order, P23837 (parent)
# chain: MKKLLRLFFPLSLRVRFLLATAAVVLVLSLAYGMVALIGYSVSFDKTTFRLLRGESNLFYTLAKWENNKLHVELPENIDKQSPTMTLIYDENGQLLWAQRDVPWLMKMIQPDWLKSNGFHEIEADVNDTSLLLSGDHSIQQQLQEVREDDDDAEMTHSVAVNVYPATSRMPKLTIVVVDTIPVELKSSYMVWSWFIYVLSANLLLVIPLLWVAAWWSLRPIEALAKEVRELEEHNRELLNPATTRELTSLVRNLNRLLKSERERYDKYRTTLTDLTHSLKTPLXXLQXXLRSLRSEKMSVSDAEPVMLEQISRISQQIGYYLHRASMRGGTLLSRELHPVAPLLDNLTSALNKVYQRKGVNISLDISPEISFVGEQNDFVEVMGNVLDNACKYCLEFVEISARQTDEHLYIVVEDDGPGIPLSKREVIFDRGQRVDTLRPGQGVGLAVAREITEQYEGKIVAGESMLGGARMEVIFGRQHSAPKDE
# Variants of: B1
# Assay: enrichment ratio after two sorts for PhoP signalling (ratio (wild type AVST 3.29)); higher = more functional
# Conditions: with PhoP (E. coli)
row,Variant,enrichment ratio
1,QPTH,≤ 0.25
2,VGPF,≤ 0.25
3,NNGI,≤ 0.25
4,LTSG,≤ 0.25
5,VNHC,≤ 0.25
6,DRHT,≤ 0.25
7,SNPE,≤ 0.25
8,VAAV,≤ 0.25
9,PTRP,≤ 0.25
10,ARIM,1.4
11,YHPT,≤ 0.25
12,TWFR,≤ 0.25
13,PIWR,≤ 0.25
14,TCST,24.9
15,IWVI,≤ 0.25
16,ASNR,≤ 0.25
17,YQRI,≤ 0.25
18,DPSM,≤ 0.25
19,KIRA,2.25
20,TRTQ,≤ 0.25
21,GVIR,≤ 0.25
22,RVYS,≤ 0.25
23,IEVI,≤ 0.25
24,LDPA,≤ 0.25
25,RRNT,≤ 0.25

row,Variant,enrichment ratio
1,PMAW,≤ 0.25
2,NWPR,≤ 0.25
3,FLEV,≤ 0.25
4,NIRY,≤ 0.25
5,NYIF,≤ 0.25
6,GHLS,≤ 0.25
7,LVIM,≤ 0.25
8,QYGI,≤ 0.25
9,PIPA,≤ 0.25
10,SDKL,≤ 0.25
11,VAYR,≤ 0.25
12,RVEH,≤ 0.25
13,NWRG,≤ 0.25
14,DVCN,≤ 0.25
15,KQNC,≤ 0.25
16,WSVA,≤ 0.25
17,PTTC,≤ 0.25
18,ALPF,≤ 0.25
19,AINA,≤ 0.25
20,PLFD,≤ 0.25
21,STPE,≤ 0.25
22,NYAS,≤ 0.25
23,DILC,≤ 0.25
24,MTMG,≤ 0.25
25,LAPI,≤ 0.25

row,Variant,enrichment ratio
1,YCYF,≤ 0.25
2,AWLA,1.75
3,EGIH,≤ 0.25
4,AVHH,≤ 0.25
5,SVAK,4.26
6,QTVS,≤ 0.25
7,FPKK,≤ 0.25
8,NDDA,≤ 0.25
9,HKYK,≤ 0.25
10,CNIL,≤ 0.25
11,MFIK,≤ 0.25
12,PFAD,≤ 0.25
13,KIRH,≤ 0.25
14,QSNV,≤ 0.25
15,DEFQ,≤ 0.25
16,HYTR,≤ 0.25
17,ADQT,≤ 0.25
18,VKCG,≤ 0.25
19,SFSF,≤ 0.25
20,EGCY,≤ 0.25
21,HAWF,≤ 0.25
22,HSRW,≤ 0.25
23,YPPR,≤ 0.25
24,LQRQ,≤ 0.25
25,KFYN,≤ 0.25

row,Variant,enrichment ratio
1,RQVT,≤ 0.25
2,TNCV,10
3,GLEN,≤ 0.25
4,RTRN,≤ 0.25
5,VHKH,≤ 0.25
6,DEES,≤ 0.25
7,DTTL,≤ 0.25
8,EPFI,≤ 0.25
9,KYCT,≤ 0.25
10,GYDW,≤ 0.25
11,KKLH,≤ 0.25
12,MALP,≤ 0.25
13,MPPR,≤ 0.25
14,YVPT,≤ 0.25
15,FGFK,≤ 0.25
16,SCPC,2.78
17,MNEI,≤ 0.25
18,LCRM,≤ 0.25
19,MISH,≤ 0.25
20,FSQD,≤ 0.25
21,VPIA,≤ 0.25
22,TQYT,0.906
23,WHIP,≤ 0.25
24,SSGH,7.6
25,LGNI,≤ 0.25

row,Variant,enrichment ratio
1,DKTA,≤ 0.25
2,NWMM,≤ 0.25
3,VGGH,≤ 0.25
4,SKPQ,≤ 0.25
5,YHFY,≤ 0.25
6,VKEC,≤ 0.25
7,KHPE,≤ 0.25
8,KEQL,≤ 0.25
9,RDWV,≤ 0.25
10,QPMT,≤ 0.25
11,FSWW,≤ 0.25
12,APIQ,≤ 0.25
13,QMDG,≤ 0.25
14,RRWK,≤ 0.25
15,QRGV,≤ 0.25
16,RNHY,≤ 0.25
17,NVYR,≤ 0.25
18,SWRN,≤ 0.25
19,FGSH,≤ 0.25
20,ESYS,≤ 0.25
21,TPFE,≤ 0.25
22,PAVF,≤ 0.25
23,KHNK,≤ 0.25
24,FAHM,≤ 0.25
25,ETLP,≤ 0.25

row,Variant,enrichment ratio
1,MNAE,8.04
2,RHTM,≤ 0.25
3,NWAW,≤ 0.25
4,VYSH,≤ 0.25
5,YGRD,≤ 0.25
6,KHPG,≤ 0.25
7,PYIR,≤ 0.25
8,GSLN,5.75
9,MVKH,≤ 0.25
10,MHCY,≤ 0.25
11,QGIR,≤ 0.25
12,TPEA,≤ 0.25
13,GPPG,≤ 0.25
14,LDQI,≤ 0.25
15,NCRN,≤ 0.25
16,TNAY,2.94
17,RGQF,≤ 0.25
18,DHMI,≤ 0.25
19,DGDY,≤ 0.25
20,WEDT,≤ 0.25
21,YYTP,≤ 0.25
22,MSIK,≤ 0.25
23,NHAW,≤ 0.25
24,IYFL,≤ 0.25
25,IPTQ,≤ 0.25

row,Variant,enrichment ratio
1,ARRE,≤ 0.25
2,SVLC,7.28
3,GHVC,≤ 0.25
4,LDRP,≤ 0.25
5,IMCH,≤ 0.25
6,PKRW,≤ 0.25
7,DAKC,≤ 0.25
8,AHNM,5.49
9,IKFH,≤ 0.25
10,MADT,≤ 0.25
11,HSFL,≤ 0.25
12,AKSI,22.7
13,DKKY,≤ 0.25
14,DEFK,≤ 0.25
15,VEKP,≤ 0.25
16,GTDT,≤ 0.25
17,GHKP,≤ 0.25
18,EKRV,≤ 0.25
19,DYAI,≤ 0.25
20,AHLQ,6.84
21,GYPH,≤ 0.25
22,YPYH,≤ 0.25
23,LTFC,≤ 0.25
24,IQIQ,≤ 0.25
25,EKIL,≤ 0.25

row,Variant,enrichment ratio
1,VDDY,≤ 0.25
2,IWQA,≤ 0.25
3,IEEC,≤ 0.25
4,HYQN,≤ 0.25
5,VCRK,≤ 0.25
6,MIRK,3.82
7,NHKL,≤ 0.25
8,PGGE,≤ 0.25
9,MGMT,≤ 0.25
10,WNVC,≤ 0.25
11,VCVC,≤ 0.25
12,NSAT,≤ 0.25
13,PSFQ,≤ 0.25
14,YKQF,≤ 0.25
15,WMGG,≤ 0.25
16,RHCG,≤ 0.25
17,DSKC,≤ 0.25
18,NIFH,≤ 0.25
19,AVLA,8.58
20,VDSL,≤ 0.25
